The target of one experiment is Myc-PLK1 (wild type) (UniProt P53350). In words: co-IP; 293T cells co-transfected with the two tagged constructs, lysed in 1X cell lysis buffer (Cell Signaling); immunoprecipitation with anti-Myc, anti-HA or anti-Flag antibody overnight at 4°C, protein A/G beads, 5 washes; immunoblotting for the tags. In general terms: Immunoblotting shows a protein as a band on a membrane.

The chains behind the UniProt entries cited, without tags or fusion partners. Where a name states a change or a piece, a line headed by the entry shows the natural chain unless it says otherwise. A line that says so, or that is headed by a name, gives the form on record, which may keep a tag or linker.
UniProt Q12834: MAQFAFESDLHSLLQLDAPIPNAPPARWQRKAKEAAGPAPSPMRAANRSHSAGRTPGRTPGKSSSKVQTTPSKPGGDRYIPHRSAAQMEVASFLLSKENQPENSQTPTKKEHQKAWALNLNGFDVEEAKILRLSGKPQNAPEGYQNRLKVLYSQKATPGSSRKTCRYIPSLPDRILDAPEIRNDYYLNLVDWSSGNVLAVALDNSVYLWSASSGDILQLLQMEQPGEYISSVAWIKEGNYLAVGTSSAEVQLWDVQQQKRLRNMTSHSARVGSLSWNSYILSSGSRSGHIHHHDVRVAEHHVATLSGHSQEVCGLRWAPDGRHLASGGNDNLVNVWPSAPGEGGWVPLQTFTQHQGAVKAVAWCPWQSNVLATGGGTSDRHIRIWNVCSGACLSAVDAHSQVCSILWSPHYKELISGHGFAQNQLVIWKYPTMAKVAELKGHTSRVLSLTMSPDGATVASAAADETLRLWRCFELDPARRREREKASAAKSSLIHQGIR
UniProt Q9UM11: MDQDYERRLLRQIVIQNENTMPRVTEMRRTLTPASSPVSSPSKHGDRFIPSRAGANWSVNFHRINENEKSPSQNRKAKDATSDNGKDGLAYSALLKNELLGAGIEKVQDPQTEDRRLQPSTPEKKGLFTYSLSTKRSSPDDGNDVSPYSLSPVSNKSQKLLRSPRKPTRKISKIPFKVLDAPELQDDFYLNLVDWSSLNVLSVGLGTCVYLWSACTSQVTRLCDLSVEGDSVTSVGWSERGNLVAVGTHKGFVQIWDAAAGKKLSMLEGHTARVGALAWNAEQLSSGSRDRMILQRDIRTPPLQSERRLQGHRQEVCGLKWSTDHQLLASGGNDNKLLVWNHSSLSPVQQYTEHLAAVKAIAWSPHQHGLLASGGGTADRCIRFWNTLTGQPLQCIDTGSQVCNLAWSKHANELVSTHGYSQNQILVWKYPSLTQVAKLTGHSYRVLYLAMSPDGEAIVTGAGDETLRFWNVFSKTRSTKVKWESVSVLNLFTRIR
UniProt Q969U6: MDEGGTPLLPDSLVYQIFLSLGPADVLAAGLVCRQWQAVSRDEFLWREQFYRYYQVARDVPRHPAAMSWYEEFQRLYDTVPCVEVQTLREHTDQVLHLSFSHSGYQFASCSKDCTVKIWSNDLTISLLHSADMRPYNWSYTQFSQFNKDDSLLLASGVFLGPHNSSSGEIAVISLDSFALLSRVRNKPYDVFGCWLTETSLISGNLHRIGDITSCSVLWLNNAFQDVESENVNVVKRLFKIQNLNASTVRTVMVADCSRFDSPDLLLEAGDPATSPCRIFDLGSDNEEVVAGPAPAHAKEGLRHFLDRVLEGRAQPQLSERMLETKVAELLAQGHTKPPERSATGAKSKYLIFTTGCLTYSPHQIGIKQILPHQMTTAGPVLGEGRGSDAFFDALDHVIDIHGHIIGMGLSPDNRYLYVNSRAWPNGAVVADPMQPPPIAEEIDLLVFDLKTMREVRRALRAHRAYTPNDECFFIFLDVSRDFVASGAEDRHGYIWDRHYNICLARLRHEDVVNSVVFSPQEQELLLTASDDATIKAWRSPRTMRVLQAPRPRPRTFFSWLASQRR
UniProt Q13309: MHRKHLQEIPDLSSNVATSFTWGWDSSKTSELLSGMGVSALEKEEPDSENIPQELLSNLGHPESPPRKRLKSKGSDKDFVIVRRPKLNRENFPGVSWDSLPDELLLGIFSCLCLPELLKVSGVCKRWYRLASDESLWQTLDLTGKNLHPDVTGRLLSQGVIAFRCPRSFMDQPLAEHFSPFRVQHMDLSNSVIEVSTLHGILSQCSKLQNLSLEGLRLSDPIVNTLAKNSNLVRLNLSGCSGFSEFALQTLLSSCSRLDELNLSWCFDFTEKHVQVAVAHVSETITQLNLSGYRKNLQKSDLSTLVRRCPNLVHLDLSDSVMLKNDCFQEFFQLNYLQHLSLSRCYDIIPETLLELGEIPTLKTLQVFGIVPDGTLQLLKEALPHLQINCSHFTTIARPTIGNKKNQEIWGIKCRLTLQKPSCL
UniProt P47736: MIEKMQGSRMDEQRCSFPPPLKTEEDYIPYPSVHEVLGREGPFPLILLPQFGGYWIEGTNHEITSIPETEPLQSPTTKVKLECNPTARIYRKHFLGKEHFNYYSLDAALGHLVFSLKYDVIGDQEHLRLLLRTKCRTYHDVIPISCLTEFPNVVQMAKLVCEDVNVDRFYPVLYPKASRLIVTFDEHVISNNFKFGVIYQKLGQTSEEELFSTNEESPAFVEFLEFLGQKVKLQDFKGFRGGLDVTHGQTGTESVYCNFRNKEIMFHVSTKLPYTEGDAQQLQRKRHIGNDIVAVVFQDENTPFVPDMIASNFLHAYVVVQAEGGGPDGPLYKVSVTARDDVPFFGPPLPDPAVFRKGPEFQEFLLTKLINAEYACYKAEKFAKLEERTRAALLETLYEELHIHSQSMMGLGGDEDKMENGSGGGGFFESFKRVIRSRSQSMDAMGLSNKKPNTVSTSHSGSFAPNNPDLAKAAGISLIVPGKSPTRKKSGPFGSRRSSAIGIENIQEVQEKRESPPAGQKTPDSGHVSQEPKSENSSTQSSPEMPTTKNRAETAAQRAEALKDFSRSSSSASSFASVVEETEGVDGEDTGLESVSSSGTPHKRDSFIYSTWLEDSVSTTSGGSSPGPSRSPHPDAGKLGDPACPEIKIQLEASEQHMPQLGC
HA-Rap1GAP (S525/529A) (P47736, form named): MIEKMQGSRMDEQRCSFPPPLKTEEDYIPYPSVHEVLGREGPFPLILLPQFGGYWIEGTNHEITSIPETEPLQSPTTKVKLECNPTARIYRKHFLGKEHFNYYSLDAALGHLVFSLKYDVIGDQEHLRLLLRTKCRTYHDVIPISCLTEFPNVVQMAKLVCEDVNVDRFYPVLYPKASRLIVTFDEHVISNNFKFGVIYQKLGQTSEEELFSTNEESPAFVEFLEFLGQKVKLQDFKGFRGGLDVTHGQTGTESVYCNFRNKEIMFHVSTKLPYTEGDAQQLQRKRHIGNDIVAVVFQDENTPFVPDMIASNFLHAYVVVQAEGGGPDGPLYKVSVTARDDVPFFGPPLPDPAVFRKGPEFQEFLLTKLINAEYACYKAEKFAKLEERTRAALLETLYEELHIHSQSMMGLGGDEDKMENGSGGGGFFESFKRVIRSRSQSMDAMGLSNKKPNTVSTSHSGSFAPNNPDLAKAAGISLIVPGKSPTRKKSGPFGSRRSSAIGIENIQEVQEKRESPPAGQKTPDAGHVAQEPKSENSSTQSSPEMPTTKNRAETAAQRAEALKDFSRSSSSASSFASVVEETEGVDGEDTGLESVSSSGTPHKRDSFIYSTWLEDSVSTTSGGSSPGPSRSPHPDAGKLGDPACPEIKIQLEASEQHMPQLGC
UniProt Q9UKB1: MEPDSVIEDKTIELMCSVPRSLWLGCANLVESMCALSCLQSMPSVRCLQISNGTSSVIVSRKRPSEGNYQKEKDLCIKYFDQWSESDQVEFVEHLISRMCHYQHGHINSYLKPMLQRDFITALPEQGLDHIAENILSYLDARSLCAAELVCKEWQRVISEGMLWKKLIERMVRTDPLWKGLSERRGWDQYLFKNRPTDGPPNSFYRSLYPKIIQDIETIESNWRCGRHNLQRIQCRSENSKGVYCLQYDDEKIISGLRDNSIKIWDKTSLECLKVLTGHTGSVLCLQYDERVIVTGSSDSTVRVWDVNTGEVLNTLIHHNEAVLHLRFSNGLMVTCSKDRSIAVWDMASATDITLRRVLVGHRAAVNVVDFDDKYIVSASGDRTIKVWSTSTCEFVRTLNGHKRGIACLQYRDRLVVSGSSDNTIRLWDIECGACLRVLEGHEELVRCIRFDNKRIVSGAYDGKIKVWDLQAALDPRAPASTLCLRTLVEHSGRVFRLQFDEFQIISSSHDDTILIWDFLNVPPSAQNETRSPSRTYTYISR

The target of a further experiment is Myc-Cdc20 (UniProt Q12834). The experiment is described as above.
The target in a further experiment is Myc-Cdh1 (UniProt Q9UM11). The experiment is described as above.
In the next experiment the target is Myc-Fbw5 (UniProt Q969U6). Described as above.
In a further experiment the target is Myc-Skp2 (UniProt Q13309). The description is as above.
For experiment [1], the target named is HA-Rap1GAP (S525/529A) (human) (UniProt P47736). Described as above.
The target in experiment [2] is HA-Rap1GAP (S529A) (human) (UniProt P47736). The experiment is described as above.
Experiment [3] has as its target HA-Rap1GAP (wild type) (human) (UniProt P47736). The experiment is described as above.
Experiment [4] has as its target Flag-Rap1GAP (wild type) (human) (UniProt P47736). The description is as above.
Experiment [5] has as its target endogenous Rap1GAP (human (endogenous in HeLa)) (UniProt P47736). Briefly: co-IP; endogenous proteins; nocodazole-arrested HeLa cells (double thymidine block, release into nocodazole; MG132 for the last 4 h for β-TrCP); lysates incubated with protein A/G sepharose with control IgG or Rap1GAP antibody; immunoblotting.

These are yes or no findings as the source states them, for the method shown. In cells and extracts the contact can be indirect. Some binding calls cover weakened binding; strength is not graded here.

Regarding “Flag-Rap1GAP (S542A/P543A) (from UniProt P47736 1-663)”, the binding entry with Myc-PLK1 (wild type) was “binds”.
Same read-out and setting: for “Flag-Rap1GAP (S625A/P626A) (from UniProt P47736 1-663)” the value was “no binding”.
For the substance “Flag-Rap1GAP (wild type) (from UniProt P47736 1-663)”, the binding result with Myc-Cdc20 is listed as “no binding”; with Myc-Cdh1 it was “no binding”; with Myc-Fbw5 it was “no binding”; with Myc-PLK1 (wild type) it was “binds”; with Myc-Skp2 it was “no binding”.
“Flag-β-TrCP2 (from UniProt Q9UKB1 1-542)”: the binding result in experiment [1] is “no binding”; in experiment [2], “no binding”; in experiment [3] it was “binds”.
In the case of “HA-Rap1GAP (S484A) (from UniProt P47736 1-663)”, the binding entry with Myc-PLK1 (wild type) was “binds”.
Same read-out and setting: for “HA-Rap1GAP (S525/529A) (from UniProt P47736 1-663)” the value was “binds”; for “HA-Rap1GAP (wild type) (from UniProt P47736 1-663)”, “binds”.
Consider “Myc-PLK1 (wild type) (from UniProt P53350 1-603) (enzyme)”, for which the binding entry in [4] is recorded as “binds”.
Consider “endogenous PLK1 (from UniProt P53350 1-603) (enzyme)”, for which the binding result in experiment [5] was “binds”.
